B1: OR4K15 (parent)
chain: GUUAACGGUCAUAGGCCAUGGAAACUAGGAGCACCAUUUCGCUGCCAGUGAAGAAAUGAACAAAGAAAAUCUGGGCCAGGCAGGCAUCAAAAGAAAUAGUCUUGCGCUCAACCAGAAAGUCUGUAAUCAUUUUAAGGGUA

The source gives no read counts; variants with many changes may rest on few reads.

The data set covers variants of B1. Nature of the data set: self-cleavage, relative activity (ratio to wild type); higher = more cleavage; in vitro, sequencing; the parent is a self-cleaving ribozyme.
With U2C A33G A66U, the self-cleavage came out at 0.63. As to U2G C77A A114G, the self-cleavage was found to be 0.4.

In the case of U2C U12C A52G, the self-cleavage was 0.98. The result for U2C U102C U120C reads 1.81. Consider G1A A126U U131C, for which the self-cleavage is 2.21. Turning to U2C U9C A33G U100C, the self-cleavage is 1.76.

Consider U2A A11G U103G A114G U130C, for which the self-cleavage turned out to be 0.02.

For U2C A54G A125G, the self-cleavage is 0.83. As for U2A A5G U19C A56G A59G A67U U132C, the self-cleavage was 0.79. On to U2C U38C C40A U70C A94G A117U, for which the self-cleavage is 0.68.

U2C A18G A22G A98U U120C: the self-cleavage was found to be 0.98. For the variant U2A U12C A27G A116U, the self-cleavage worked out at 0.66. Take U2A C6U A36U A59G A63G: the self-cleavage came out at 1.41. For the variant U2G U9C U38C U87C, the self-cleavage came to 0.92. On to U2C A18G A33G, for which the self-cleavage was found to be 1.57. As for U2C A13U A33G A51G U103C A134G, the self-cleavage was 0.65.

With U2C U9C U43C U100C A114G U122C, the self-cleavage was 0.72. In the case of U2C U9A A22G A90G A111G, the self-cleavage turned out to be 0.03. Turning to U2C A69G A94C U120C, the self-cleavage was found to be 0.44.

As for U2C A27G A67G U122A A126G, the self-cleavage turned out to be 0.18. The result for G1A A30G U87C reads 1.62; that for G1A A90G A96G, 0.88; that for U2C C71A U132C, 1.12. Regarding G1A A23U U57A A67U U132C, the self-cleavage is 1.47.

Regarding U2C G15C G80A, the self-cleavage came out at 0.18.

In the case of U2G G21A G75C A96G G115A, the self-cleavage came to 0.06. The result for U2C A27U C42U U108C reads 0.04; that for U2C C35A G44U A59G, 1.44; that for U2A A22G A92G, 1.38. Regarding U2G A66G A69G U72C, the self-cleavage came to 0.51. U2C A18U A56G U127C: the self-cleavage is 0.26. Turning to U2C U9A U37C A114G, the self-cleavage came to 0.27.

Turning to U2A A51G A89G A116U U122C A134G, the self-cleavage is 0.14. For the variant G1A A95U A118G, the self-cleavage was determined as 1.47.

Turning to G1U A55G A62G A64G U72A U122G, the self-cleavage is 0.53. The result for G1U A90G A94C U124C reads 0.98; that for U2A A56G A92G, 1.74; that for U2C A68G U100C, 1.88.

On to U2C A22G A52U A62G A78U A92G, for which the self-cleavage is 0.44. As to G1A G8A U39C U108C A140G, the self-cleavage is 0.02. In the case of U2C A5G U38C A126G U127A, the self-cleavage came out at 0. Consider U2C A56G A78U, for which the self-cleavage came out at 0.07.

For the variant U2A U49C A59G, the self-cleavage was 1.56. U2C A36G A78G U102A: the self-cleavage was 0.1. The result for U2C U9C A24G A36U A55G U57C U100G reads 1.09; that for U2C A13U A18G A51G A64G, 1.36; that for U2C A24G A92G, 1.81. Take U2C G58A A116G: the self-cleavage amounted to 0.19. Consider U2C U38C A54G A59U A60G, for which the self-cleavage was 0.76. As to U2C U38A A59G U97C A114G, the self-cleavage was determined as 0.28. Regarding U2C A23G A118G, the self-cleavage was found to be 0.5.

For U2C A11G A62G, the self-cleavage was determined as 1.3. As to U2C A11C A47G A78G, the self-cleavage stood at 0.33.

As to U2A U49C U72C C113U, the self-cleavage came out at 0. The result for U2C A24U U38C A69G A129G reads 0.63. Consider U2C A4G A47G A91G A95G, for which the self-cleavage was 0.39. Regarding U2C U43C A118U, the self-cleavage is 0.33.

Take U2A A30G A78U A95G: the self-cleavage was 0.69.

For U2C A22G U102C, the self-cleavage was found to be 1.03. Regarding U2C A54G A95U A126G, the self-cleavage was found to be 1.08. For U2A A23G A95G, the self-cleavage stood at 1.02.

Regarding U2C G29A A55G A117U, the self-cleavage amounted to 0.64. In the case of U2C A33G A47U U72C U102C, the self-cleavage amounted to 0.31. Regarding U2C A5G A111G, the self-cleavage was determined as 0.08. With U2A A23G A91G A114C, the self-cleavage was 0. In the case of U2C C10U U38C C121U, the self-cleavage stood at 2.12.

Take U2C U39A A118G C128A: the self-cleavage stood at 0.26.

As to U2C A24U U39C A51G A60G A95G A135C, the self-cleavage came out at 1.55. Take U2C U19C A47G A69G: the self-cleavage came out at 0.56.

Regarding U2A U26C U37A A68G A114G U131C, the self-cleavage is 0.34.

As to U2A A63G U108C A111G, the self-cleavage came to 0.03.

On to U2A U12A A62G A111G, for which the self-cleavage amounted to 0.11. The result for U2A U19C A116G reads 0.93. The result for U2A A23G U124C reads 0.72; that for U2C A91G A92U A126G, 1.54; that for U2C A11G A36C U38G, 1.65. Take U2C A98G A118G U139C: the self-cleavage was determined as 0.21.

Consider U2C U19C G29U U43A A78G A95G U130C, for which the self-cleavage amounted to 0.26. The same measure for G1U A111G G115A: 0. For U2C A69G A118G U130C, the self-cleavage stood at 0.22.

With U2C A52G A86U G119A, the self-cleavage was 2.54. Regarding G1U A36U A96G, the self-cleavage amounted to 2.12. The result for U2C A51G A64G A125G reads 0.12; that for U2C U37C U120C U132C, 1.27.

Consider U2C A24G U37C A69G, for which the self-cleavage is 1.62. Turning to U2C A22C A91G U108C A110G, the self-cleavage is 0.02. On to U2C U43A A68G A86G, for which the self-cleavage came to 0.91. Take U2A A52U U72A: the self-cleavage amounted to 0.74. Turning to U2A A91U A134G, the self-cleavage turned out to be 0.82.

Consider U2C A51U U100C U102C, for which the self-cleavage is 1.63. For the variant U2A A94G A114G, the self-cleavage was 1.02. The same measure for U2C A24G A62G U122G U131C: 2.23.

In the case of U2C U39G U100C U102C, the self-cleavage came out at 2.24.

On to U2C G20U A47G, for which the self-cleavage is 1.21. U2A A27U U37C A60G: the self-cleavage was found to be 0.9. On to U2C A33G A55U A59G A69U, for which the self-cleavage was found to be 0.76. As to U2A A69G U100C, the self-cleavage was found to be 0. Turning to U2C U87C A114G, the self-cleavage was determined as 0.16. U2C U132C A135U: the self-cleavage stood at 1.05.

Turning to G1A A95G U120C, the self-cleavage amounted to 0.85.

As to U2A A68G A91G, the self-cleavage was found to be 1.78. For U2C A11U A67G A114G, the self-cleavage amounted to 0.42.

Take U2C A52G U72C U87C A118G: the self-cleavage is 0.02. Take U2C A47U A56U U132C: the self-cleavage was 0.77. On to U2C C45A A111U, for which the self-cleavage turned out to be 0.08. U2C A63G A68U U127C: the self-cleavage stood at 0.54. In the case of G1A A33G A78U A116G, the self-cleavage turned out to be 0.18. With U2C U9C U38A A59G U100C, the self-cleavage was found to be 1.8. U2C A11G A96G U122A: the self-cleavage amounted to 0.71. On to U2C A5G U70C A92G A96G U108C, for which the self-cleavage was found to be 0.01. Regarding U2C A13U A64G A98G, the self-cleavage came to 0.5. In the case of U2C A66G G80U U131C, the self-cleavage is 0.08. Turning to U2C G8A A11G, the self-cleavage was determined as 1.14. Regarding U2C U9C U37C A62G A67G A96G A111U U120C, the self-cleavage amounted to 0.04. With U2C A91U U131C, the self-cleavage amounted to 1.11.

For G1A A23U A33U G41C A82G U87A A89G U122C, the self-cleavage is 0.4.

For the variant U2C U43C A91G, the self-cleavage was determined as 1.16. Consider U2C U39A A94G U139C, for which the self-cleavage was found to be 0.75. The result for U2C A23G G137A reads 1.79. U2C A11C U49G: the self-cleavage stood at 1.37. Regarding U2C C25U A96G A129G, the self-cleavage turned out to be 1.26.

Regarding U2C U9A C46A A67G, the self-cleavage worked out at 0.98. Turning to U2A A55G A67G, the self-cleavage stood at 1.64.

Turning to G1A A27G A33G A62G A67G A129G, the self-cleavage worked out at 1.28.

In the case of G1A A24G A62G, the self-cleavage was 2.04. Consider U2C A55G A96G A110C, for which the self-cleavage came to 0.23.

With U2A A23G U49C A91U, the self-cleavage was found to be 0.83. Consider U2A A82G A95G A111G U127G, for which the self-cleavage stood at 0.

U2G A63G A94U: the self-cleavage was 0.5. With U2A U57C U108C, the self-cleavage turned out to be 0.05. For the variant G1A G7U U26C G29U U49G A66G U127A, the self-cleavage was found to be 2. In the case of G1A A110G U139C, the self-cleavage is 0.36. As for U2A A60G U87C, the self-cleavage came to 0.76. As for U2C A66G U131C U139C, the self-cleavage came out at 1.63.

Regarding U2C A59G A82G U127A, the self-cleavage was found to be 0.78. The same measure for U2C A5G A86G: 1.26; for G1A A23U C45U U127C: 0.97; for U2C A30U G44U A56G A117U: 0.59. With U2C A60G G123U U130C U131C, the self-cleavage was found to be 1.19. With U2C A13G U57C, the self-cleavage was found to be 1.47.

U2C A18G U37C U39C A67G A135G: the self-cleavage stood at 0.62.

Consider U2C A5G A52G A60G U102C A111C A126G, for which the self-cleavage was found to be 0.01.

On to U2G A82U G119A, for which the self-cleavage is 0.72.

Consider U2C C6U A24G A91U, for which the self-cleavage came out at 0.44. As for G1C A51U U87C A89U C128A U132C, the self-cleavage was found to be 1.17. The same measure for U2C U26A A27G U37C A51U A92G U100C U103A: 0.87; for G1U A67G A96U A140G: 1.72; for U2A A4U U37C G53A A64G: 1.09. With U2A A18G A27G A52G, the self-cleavage was 0.75.

As for U2C A55G A69G A92G U132C, the self-cleavage turned out to be 1.08. As to U2A U19C U43A A129G, the self-cleavage was determined as 0.21. For U2C A22G U49C, the self-cleavage amounted to 0.86. For the variant U2C U97G A116G, the self-cleavage came to 0.73. Consider U2C A52G A78G, for which the self-cleavage stood at 0.37.

Turning to U2C U57C G74A A78U C88G U131C G137A, the self-cleavage turned out to be 0.01. As for U2C U12C A33G A64G U130C A135C, the self-cleavage came out at 0.28. As to U2C A36U U39A A52G A67G A68G, the self-cleavage was found to be 0.97. As to U2C U9A U12C A90G U139C, the self-cleavage worked out at 1.28. Turning to U2C U37G A66G A96G A129G, the self-cleavage worked out at 1.47. Take U2C A33U A51G A60G A63G G106U A111G: the self-cleavage was determined as 0.01.

For U2G A22G A111C U127C U133C, the self-cleavage worked out at 0. The same measure for U2C A56G A69G: 1.39; for U2C U26C A89G A94G U103C A118G: 0.37. On to G1A A68G A90G, for which the self-cleavage stood at 1.1. In the case of U2A A95G A135U, the self-cleavage is 0.9.

On to U2C A33G U38C A96G, for which the self-cleavage worked out at 0.93.

Consider U2C U9C A11G U49C, for which the self-cleavage was 0.45.

Values taken from the RNAGym collection of RNA variant scans (doi:10.7554/elife.90254).
